The list shows a part of the results.

The target of the experiment is T1, MBP-FoxP1dN (Mus musculus, UniProt P58462 326-579).
T1 sequence: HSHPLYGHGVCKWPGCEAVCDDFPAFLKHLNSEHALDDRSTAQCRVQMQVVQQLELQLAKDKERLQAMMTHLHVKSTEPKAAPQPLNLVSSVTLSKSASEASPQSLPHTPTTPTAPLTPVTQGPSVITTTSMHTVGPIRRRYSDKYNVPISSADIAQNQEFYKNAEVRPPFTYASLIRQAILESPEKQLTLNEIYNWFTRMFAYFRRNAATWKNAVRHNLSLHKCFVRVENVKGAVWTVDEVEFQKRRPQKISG
Description: PD-seq (MBP pull-down with sequencing); 20 mM Tris-HCl pH 7.5, 100 mM NaCl, 1.5 mM MgCl2, 0.4 uM protein, 0.1 uM dsDNA library, 30 min, room temperature, amylose pull-down; high values mean tight binding. The conditions noted are these: protein: recombinant; tags: His6-MBP; chain copies: 2; dsDNA, one strand shown. The method, boiled down: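 A degenerate double-stranded DNA library, filled in with Klenow, was added at 0.1 µM to 0.4 µM His6-MBP-tagged mouse FoxP3 or FoxP1 fragment lacking the N-terminus, expressed in E. coli. Incubation lasted 30 min at room temperature in Tris pH 7.5 buffer with NaCl and MgCl2, after which complexes were collected on amylose resin, washed three times, digested with proteinase K to free the DNA, barcoded by PCR and sequenced by Illumina. Binding is the pooled-replicate reads-per-million enrichment of pull-down over input.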
As for “GATGATTGTTCTCCCAGCTGATGAATTGATTACCTCGAGTAAACAAATTTTCCTAATCTTTCTGTTCAAGCGCCATCTAC”, the binding signal is 1.39 RPM ratio (pull-down/input).

In the case of “GATGATTGTTCTCCCAGCTGATGAATTACACGTTTCGAGTAAACAAATTTTCCTAATCTTTCTGTTCAAGCGCCATCTAC”, the binding signal was 1.24 RPM ratio (pull-down/input).

With “GATGATTGTTCTCCCAGCTGATGAATTATCCTGCTCGAGTAAACAAATTTTCCTAATCTTTCTGTTCAAGCGCCATCTAC”, the binding signal was 0.904 RPM ratio (pull-down/input).

As for “GATGATTGTTCTCCCAGCTGATGAATTGTTTTCTTCGAGTAAACAAATTTTCCTAATCTTTCTGTTCAAGCGCCATCTAC”, the binding signal is 2.03 RPM ratio (pull-down/input).

For “GATGATTGTTCTCCCAGCTGATGAATTCGCGATTTCGAGTAAACAAATTTTCCTAATCTTTCTGTTCAAGCGCCATCTAC”, the binding signal is 0.941 RPM ratio (pull-down/input).

On to “GATGATTGTTCTCCCAGCTGATGAATTGGCTGGCTCGAGTAAACAAATTTTCCTAATCTTTCTGTTCAAGCGCCATCTAC”, for which the binding signal was 0.797 RPM ratio (pull-down/input).

As for “GATGATTGTTCTCCCAGCTGATGAATTGGCAAGGTCGAGTAAACAAATTTTCCTAATCTTTCTGTTCAAGCGCCATCTAC”, the binding signal was 0.794 RPM ratio (pull-down/input).

On to “GATGATTGTTCTCCCAGCTGATGAATTTCGGAGCTCGAGTAAACAAATTTTCCTAATCTTTCTGTTCAAGCGCCATCTAC”, for which the binding signal is 0.743 RPM ratio (pull-down/input).

With “GATGATTGTTCTCCCAGCTGATGAATTCTTGTCGTCGAGTAAACAAATTTTCCTAATCTTTCTGTTCAAGCGCCATCTAC”, the binding signal was 1.18 RPM ratio (pull-down/input).

On to “GATGATTGTTCTCCCAGCTGATGAATTCTAGCTATCGAGTAAACAAATTTTCCTAATCTTTCTGTTCAAGCGCCATCTAC”, for which the binding signal was 1.02 RPM ratio (pull-down/input).

With “GATGATTGTTCTCCCAGCTGATGAATTTGTAAATTCGAGTAAACAAATTTTCCTAATCTTTCTGTTCAAGCGCCATCTAC”, the binding signal is 1.28 RPM ratio (pull-down/input).

In the case of “GATGATTGTTCTCCCAGCTGATGAATTGTAGTCTTCGAGTAAACAAATTTTCCTAATCTTTCTGTTCAAGCGCCATCTAC”, the binding signal is 1.11 RPM ratio (pull-down/input).

Regarding “GATGATTGTTCTCCCAGCTGATGAATTCTCCTATTCGAGTAAACAAATTTTCCTAATCTTTCTGTTCAAGCGCCATCTAC”, the binding signal is 0.943 RPM ratio (pull-down/input).

Turning to “GATGATTGTTCTCCCAGCTGATGAATTGGGCAAATCGAGTAAACAAATTTTCCTAATCTTTCTGTTCAAGCGCCATCTAC”, the binding signal was 0.975 RPM ratio (pull-down/input).

Regarding “GATGATTGTTCTCCCAGCTGATGAATTTCACTTATCGAGTAAACAAATTTTCCTAATCTTTCTGTTCAAGCGCCATCTAC”, the binding signal was 0.993 RPM ratio (pull-down/input).

In the case of “GATGATTGTTCTCCCAGCTGATGAATTCACAGATTCGAGTAAACAAATTTTCCTAATCTTTCTGTTCAAGCGCCATCTAC”, the binding signal is 0.901 RPM ratio (pull-down/input).

For “GATGATTGTTCTCCCAGCTGATGAATTTAAATACTCGAGTAAACAAATTTTCCTAATCTTTCTGTTCAAGCGCCATCTAC”, the binding signal is 0.992 RPM ratio (pull-down/input).

As for “GATGATTGTTCTCCCAGCTGATGAATTTAGTTCATCGAGTAAACAAATTTTCCTAATCTTTCTGTTCAAGCGCCATCTAC”, the binding signal is 0.956 RPM ratio (pull-down/input).

Take “GATGATTGTTCTCCCAGCTGATGAATTTATATGCTCGAGTAAACAAATTTTCCTAATCTTTCTGTTCAAGCGCCATCTAC”: the binding signal was 1.1 RPM ratio (pull-down/input).

In the case of “GATGATTGTTCTCCCAGCTGATGAATTAGCTCGTTCGAGTAAACAAATTTTCCTAATCTTTCTGTTCAAGCGCCATCTAC”, the binding signal was 0.856 RPM ratio (pull-down/input).

Turning to “GATGATTGTTCTCCCAGCTGATGAATTGGCGGCATCGAGTAAACAAATTTTCCTAATCTTTCTGTTCAAGCGCCATCTAC”, the binding signal is 1.08 RPM ratio (pull-down/input).

As to “GATGATTGTTCTCCCAGCTGATGAATTAAGGATATCGAGTAAACAAATTTTCCTAATCTTTCTGTTCAAGCGCCATCTAC”, the binding signal is 0.989 RPM ratio (pull-down/input).

Regarding “GATGATTGTTCTCCCAGCTGATGAATTGATTTACTCGAGTAAACAAATTTTCCTAATCTTTCTGTTCAAGCGCCATCTAC”, the binding signal was 1.25 RPM ratio (pull-down/input).

As to “GATGATTGTTCTCCCAGCTGATGAATTACCACCCTCGAGTAAACAAATTTTCCTAATCTTTCTGTTCAAGCGCCATCTAC”, the binding signal was 0.889 RPM ratio (pull-down/input).

In the case of “GATGATTGTTCTCCCAGCTGATGAATTCAGTAGCTCGAGTAAACAAATTTTCCTAATCTTTCTGTTCAAGCGCCATCTAC”, the binding signal is 0.872 RPM ratio (pull-down/input).

As for “GATGATTGTTCTCCCAGCTGATGAATTTTTTGACTCGAGTAAACAAATTTTCCTAATCTTTCTGTTCAAGCGCCATCTAC”, the binding signal was 0.935 RPM ratio (pull-down/input).

Consider “GATGATTGTTCTCCCAGCTGATGAATTACTGGATTCGAGTAAACAAATTTTCCTAATCTTTCTGTTCAAGCGCCATCTAC”, for which the binding signal is 1.07 RPM ratio (pull-down/input).

Consider “GATGATTGTTCTCCCAGCTGATGAATTGTGATGGTCGAGTAAACAAATTTTCCTAATCTTTCTGTTCAAGCGCCATCTAC”, for which the binding signal was 1.16 RPM ratio (pull-down/input).

Consider “GATGATTGTTCTCCCAGCTGATGAATTCGGAGTATCGAGTAAACAAATTTTCCTAATCTTTCTGTTCAAGCGCCATCTAC”, for which the binding signal is 0.921 RPM ratio (pull-down/input).

In the case of “GATGATTGTTCTCCCAGCTGATGAATTCCGCAATTCGAGTAAACAAATTTTCCTAATCTTTCTGTTCAAGCGCCATCTAC”, the binding signal was 0.961 RPM ratio (pull-down/input).

Consider “GATGATTGTTCTCCCAGCTGATGAATTTGGCCGATCGAGTAAACAAATTTTCCTAATCTTTCTGTTCAAGCGCCATCTAC”, for which the binding signal was 0.872 RPM ratio (pull-down/input).

The record behind these values is publication PMC12820563, “FoxP3 forms a head-to-head dimer in vivo and stabilizes its multimerization on adjacent microsatellites”.
